# Measurements from publication PMC5540273 (PLoS ONE, 2017).
# For some of these results: This list holds what a sample rich in strong results left over. The entries are a selection whose mix differs from that of the whole data set.
# Columns and labels:
# Conditions in all cases: concentration: 1 μM,replicates: in singlicate; n = 1
# [1] = system: TNK1
# [2] = system: TNK2
# [3] = system: TNNI3K
# [4] = system: T1, TRKA
# T1 construct: gene NTRK1
# [5] = system: TRKB
# [6] = system: T2, TRKC
# T2 construct: gene NTRK3
# [7] = system: TRPM6
# [8] = system: TSSK1B
# [9] = system: TSSK3
# [10] = system: TTK
# [11] = system: TXK
# [12] = system: TYK2(JH1domain-catalytic)
# [13] = system: TYK2(JH2domain-pseudokinase)
# [14] = system: TYRO3
# [15] = system: ULK1
# [16] = system: ULK2
# [17] = system: ULK3
# [18] = system: T3, VEGFR2
# T3 construct: gene KDR
# [19] = system: T4, VPS34
# T4 construct: gene PIK3C3
# [20] = system: VRK2
# 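Note: KINOMEscan kinase panel screen.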
SMILES,%Inh [1] [%],%Inh [2] [%],%Inh [3] [%],%Inh [4] [%],%Inh [5] [%],%Inh [6] [%],%Inh [7] [%],%Inh [8] [%],%Inh [9] [%],%Inh [10] [%],%Inh [11] [%],%Inh [12] [%],%Inh [13] [%],%Inh [14] [%],%Inh [15] [%],%Inh [16] [%],%Inh [17] [%],%Inh [18] [%],%Inh [19] [%],%Inh [20] [%]
O=C1NC(=O)C(c2ccc(Cl)cc2)=C1Nc1ccc(O)c(Cl)c1 [SB-405367],0,0,0,8,38,38,0,0,0,3,0,2,0,0,7,8,16,0,0,0
COc1ccc(C2=C(Nc3cccc(Cl)c3)C(=O)NC2=O)cc1 [SB-326892],36,0,0,0,0,0,0,0,0,0,20,0,0,47,0,0,12,0,7,0
O=C1NC(=O)C(c2ccccc2Cl)=C1Nc1ccccc1 [SB-376715],0,0,13,47,0,10,0,0,12,0,3,0,0,0,4,0,2,0,12,0
O=C1NC(=O)C(c2ccc(Cl)cc2)=C1Nc1cccc(C(=O)O)c1 [SB-360737],0,10,0,0,5,20,48,12,1,0,24,12,44,0,23,0,14,0,0,0
CSc1ccc(NC2=C(c3cccc(Cl)c3)C(=O)NC2=O)cc1 [SB-341528],2,0,0,7,19,17,0,0,0,19,0,0,0,0,0,0,0,0,0,0
Cc1ccc(C)c(Oc2nccc(-c3c(-c4ccc(F)cc4)ncn3C3CCNCC3)n2)c1.O=C(O)C(F)(F)F.O=C(O)C(F)(F)F.O=C(O)C(F)(F)F [SB-284852],15,0,0,0,0,0,0,0,0,0,12,0,0,0,0,0,0,0,0,0
O=C1NC(=O)C(c2ccccc2)=C1Nc1cc(Cl)c(O)c(Cl)c1 [SB-390530],0,0,0,24,28,22,0,19,0,23,16,7,2,0,8,0,0,20,0,0
O=C1NC(=O)c2c1c(-c1ccccc1)cc1[nH]c3ccc(O)cc3c21,11,13,17,70,31,10,15,35,3,0,0,30,53,0,24,51,92.9,30,0,0
